In PMC5567040:
Read-outs that look alike come from different tables or passages of the source. No constants are given. Whether binding was seen depends on the method and setting. For some assays here: Binding seen in cells or lysates may run through a third protein. Some entries that bind do so weakly or less than the wild type. For some assays here: Where a sequence is shown, tags or fusion partners need not be part of it.

By UniProt entry, the sequences of proteins in these tests, tags left out. Where a name states a change or a piece, a line headed by the entry shows the natural chain unless it says otherwise. Chains listed by the source or under a name are the forms on record and can include a tag or linker. Residues count along the entry.
UniProt P04150: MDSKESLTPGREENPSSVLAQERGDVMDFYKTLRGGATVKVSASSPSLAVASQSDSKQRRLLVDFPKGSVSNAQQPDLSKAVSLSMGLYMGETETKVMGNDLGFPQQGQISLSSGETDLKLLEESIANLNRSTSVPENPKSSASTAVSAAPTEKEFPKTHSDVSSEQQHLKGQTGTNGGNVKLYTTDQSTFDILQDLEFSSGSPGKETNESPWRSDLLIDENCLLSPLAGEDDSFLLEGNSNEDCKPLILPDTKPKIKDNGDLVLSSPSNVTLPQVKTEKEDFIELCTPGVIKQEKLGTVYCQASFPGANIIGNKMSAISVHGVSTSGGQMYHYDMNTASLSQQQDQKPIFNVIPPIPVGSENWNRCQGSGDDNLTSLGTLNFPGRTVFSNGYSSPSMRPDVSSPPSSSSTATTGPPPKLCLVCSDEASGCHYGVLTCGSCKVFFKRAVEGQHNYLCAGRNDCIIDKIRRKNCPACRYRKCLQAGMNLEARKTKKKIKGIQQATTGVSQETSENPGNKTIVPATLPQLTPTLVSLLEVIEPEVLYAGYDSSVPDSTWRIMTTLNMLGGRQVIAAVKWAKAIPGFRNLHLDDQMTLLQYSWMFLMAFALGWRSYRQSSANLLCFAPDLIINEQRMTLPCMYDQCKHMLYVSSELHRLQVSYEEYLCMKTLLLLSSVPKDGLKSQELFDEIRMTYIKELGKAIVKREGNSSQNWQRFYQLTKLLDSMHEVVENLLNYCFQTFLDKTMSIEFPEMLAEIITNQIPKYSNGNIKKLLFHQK
Flag-GR Del487-777: residues 1-486 of P04150
Flag-GR Del417-777: residues 1-416 of P04150
Flag-GR Del1-401: residues 402-777 of P04150
Flag-GR Del1-416: residues 417-777 of P04150
Flag-GR Del417-486 (P04150, form named): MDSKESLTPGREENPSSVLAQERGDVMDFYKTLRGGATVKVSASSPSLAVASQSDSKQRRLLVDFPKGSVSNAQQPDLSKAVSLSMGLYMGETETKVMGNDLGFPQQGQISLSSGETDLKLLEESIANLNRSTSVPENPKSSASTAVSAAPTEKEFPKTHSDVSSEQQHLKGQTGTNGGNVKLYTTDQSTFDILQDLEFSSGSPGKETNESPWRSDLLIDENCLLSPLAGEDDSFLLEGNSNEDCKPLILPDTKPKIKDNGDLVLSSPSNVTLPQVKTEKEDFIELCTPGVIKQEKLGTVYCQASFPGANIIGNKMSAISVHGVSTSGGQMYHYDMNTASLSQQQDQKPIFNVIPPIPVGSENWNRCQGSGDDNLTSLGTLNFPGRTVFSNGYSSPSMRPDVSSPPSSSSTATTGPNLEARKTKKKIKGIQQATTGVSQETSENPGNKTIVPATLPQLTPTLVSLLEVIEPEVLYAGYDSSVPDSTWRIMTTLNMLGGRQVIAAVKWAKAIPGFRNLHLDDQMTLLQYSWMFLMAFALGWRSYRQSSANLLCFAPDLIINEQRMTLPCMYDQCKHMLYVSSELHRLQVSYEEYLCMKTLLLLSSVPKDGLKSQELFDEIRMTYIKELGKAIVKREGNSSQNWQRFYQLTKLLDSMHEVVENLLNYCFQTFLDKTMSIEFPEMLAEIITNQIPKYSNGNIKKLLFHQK
UniProt P67775: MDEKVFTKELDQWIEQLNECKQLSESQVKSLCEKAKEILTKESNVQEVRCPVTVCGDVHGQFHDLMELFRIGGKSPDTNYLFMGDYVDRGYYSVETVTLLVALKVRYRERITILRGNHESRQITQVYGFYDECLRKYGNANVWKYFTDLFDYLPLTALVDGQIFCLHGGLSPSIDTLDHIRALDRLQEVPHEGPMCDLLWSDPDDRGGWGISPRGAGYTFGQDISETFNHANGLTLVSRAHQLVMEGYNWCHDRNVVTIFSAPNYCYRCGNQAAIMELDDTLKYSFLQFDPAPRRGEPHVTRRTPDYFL

Legend:
[1] = molecular target: T1, Flag-STRN3, over-expressed in A549 cells (human) (UniProt Q13033); test: co-IP; A549 cell lysate with over-expressed Flag-STRN3; immunoprecipitation of Flag-STRN3, blot for endogenous pS211 GR and endogenous PPP2CA; without or with Dex (Supplementary S7)
T1 sequence: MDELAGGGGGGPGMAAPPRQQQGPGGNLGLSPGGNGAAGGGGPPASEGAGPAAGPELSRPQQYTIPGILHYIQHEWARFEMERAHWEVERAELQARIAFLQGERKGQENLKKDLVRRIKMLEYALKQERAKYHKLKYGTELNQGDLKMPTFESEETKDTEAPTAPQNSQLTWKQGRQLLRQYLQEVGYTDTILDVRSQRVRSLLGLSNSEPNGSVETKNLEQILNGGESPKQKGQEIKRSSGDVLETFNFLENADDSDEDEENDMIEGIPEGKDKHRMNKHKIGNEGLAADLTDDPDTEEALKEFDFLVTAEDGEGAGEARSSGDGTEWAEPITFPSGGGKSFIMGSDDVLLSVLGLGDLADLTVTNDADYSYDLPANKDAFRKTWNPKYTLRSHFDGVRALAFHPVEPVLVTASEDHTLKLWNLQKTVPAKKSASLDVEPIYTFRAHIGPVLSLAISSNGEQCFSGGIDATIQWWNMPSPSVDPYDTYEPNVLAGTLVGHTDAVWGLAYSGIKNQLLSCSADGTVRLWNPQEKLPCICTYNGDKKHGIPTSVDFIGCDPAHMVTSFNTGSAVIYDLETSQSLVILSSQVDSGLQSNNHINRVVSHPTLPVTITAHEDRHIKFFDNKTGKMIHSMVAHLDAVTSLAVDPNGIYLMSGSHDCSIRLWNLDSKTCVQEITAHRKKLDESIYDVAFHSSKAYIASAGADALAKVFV

[2] = molecular target: Flag-GR Del417-777 (human) (UniProt P04150); test: co-IP; HEK293T cells transfected in 10 cm dishes; lysates on Anti-Flag M2 Affinity Gel overnight at 4 °C; washed 4x in buffer A with 150 mM NaCl and 0.5% Triton-X 100; immunoblot; cells treated with vehicle or 1 µM Dex for 2 h
[3] = molecular target: Flag-GR Del487-777 (human) (UniProt P04150); test: as above
[4] = molecular target: T2, Flag-STRN3 (pMet7-Flag-STRN3), in HEK293T (human) (UniProt Q13033); test: as above
T2 sequence: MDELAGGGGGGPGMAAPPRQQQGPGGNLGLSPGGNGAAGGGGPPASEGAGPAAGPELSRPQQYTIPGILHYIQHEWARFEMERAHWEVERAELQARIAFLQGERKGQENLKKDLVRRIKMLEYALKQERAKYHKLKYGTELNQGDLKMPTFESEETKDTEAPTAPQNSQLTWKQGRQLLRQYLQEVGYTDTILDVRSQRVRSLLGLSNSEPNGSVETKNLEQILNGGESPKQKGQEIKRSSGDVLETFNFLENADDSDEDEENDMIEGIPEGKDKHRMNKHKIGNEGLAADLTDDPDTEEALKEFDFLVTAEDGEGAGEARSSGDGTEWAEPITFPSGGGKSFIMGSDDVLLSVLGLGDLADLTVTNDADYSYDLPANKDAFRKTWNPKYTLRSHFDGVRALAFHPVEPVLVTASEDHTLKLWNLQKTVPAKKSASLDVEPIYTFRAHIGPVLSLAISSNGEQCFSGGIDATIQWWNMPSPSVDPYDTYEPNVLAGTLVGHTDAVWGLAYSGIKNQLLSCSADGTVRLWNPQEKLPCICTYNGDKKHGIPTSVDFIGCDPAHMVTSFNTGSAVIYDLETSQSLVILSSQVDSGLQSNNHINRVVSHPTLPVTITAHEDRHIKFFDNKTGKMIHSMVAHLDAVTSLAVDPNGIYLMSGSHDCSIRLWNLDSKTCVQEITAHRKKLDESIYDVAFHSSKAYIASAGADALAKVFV

[5] = molecular target: human glucocorticoid receptor alpha, MAPPIT bait (pCLG-hGRα) (human) (UniProt P04150); test: two-hybrid; MAPPIT (mammalian protein-protein interaction trap) in HEK293T cells; GR bait on a mutated Leptin receptor, STRN3 prey on a gp130 fragment, rPAP1-Luc reporter; leptin (100 ng/ml) plus medium or leptin plus Dex (1 µM), 24 h
Flag-GR S211A (human) = Flag-GR S211A (human) (UniProt P04150); test: co-IP; HEK293T cells transfected in 10 cm dishes; lysates on Anti-Flag M2 Affinity Gel overnight at 4 °C; washed 4x in buffer A with 150 mM NaCl and 0.5% Triton-X 100; immunoblot; cells treated with vehicle or 1 µM Dex for 2 h
[6] = molecular target: Flag-GR Del417-777 (human) (UniProt P04150); test: as above; remark: listed apart in the source
[7] = molecular target: Flag-GR Del487-777 (human) (UniProt P04150); test: as above; remark: listed apart in the source
[8] = molecular target: Flag-GR (wild type) (human) (UniProt P04150); test: as above
Flag-GR Del1-416 (human) = Flag-GR Del1-416 (human) (UniProt P04150); test: as above
[9] = molecular target: Flag-GR Del417-486 (human) (UniProt P04150); test: as above
Flag-GR Del1-401 (human) = Flag-GR Del1-401 (human) (UniProt P04150); test: as above

**Q.** “endogenous PPP2CA of A549 cells (from UniProt P67775 1-309) (enzyme)” was tested. Which binding [1] did it give?
**A.** Its binding is “binds”.

**Q.** “endogenous PPP2CA of HEK293T cells (from UniProt P67775 1-309) (enzyme)” was tested. Which binding [2] did it give?
**A.** Its binding is “no binding”.

**Q.** What about the binding [3] of the same molecule?
**A.** Its binding is “no binding”.

**Q.** How did the binding [1] turn out when “endogenous GR phosphorylated at S211, A549 cells (from UniProt P04150 1-777) (receptor)” was run?
**A.** Its binding is “binds”.

**Q.** With “CFP-GR (pECFP-GRα) (from UniProt P04150 1-777) (receptor)” as the molecule, how does the binding [4] read?
**A.** The binding was “binds”.

**Q.** For “PPP2CA, catalytic subunit of protein phosphatase 2A, over-expressed (from UniProt P67775 1-309) (enzyme)”, which binding [4] is on record?
**A.** Its binding is “binds”.

B1: human Striatin-3 isoform alpha, MAPPIT prey (pMG1-hSTRN3) (protein, UniProt Q13033-2 1-713)
chain: MDELAGGGGGGPGMAAPPRQQQGPGGNLGLSPGGNGAAGGGGPPASEGAGPAAGPELSRPQQYTIPGILHYIQHEWARFEMERAHWEVERAELQARIAFLQGERKGQENLKKDLVRRIKMLEYALKQERAKYHKLKYGTELNQGDLKMPTFESEETKDTEAPTAPQNSQLTWKQGRQLLRQYLQEVGYTDTILDVRSQRVRSLLGLSNSEPNGSVETKNLEQILNGGESPKQKGQEIKRSSGDVLETFNFLENADDSDEDEENDMIEGIPEGKDKHRMNKHKIGNEGLAADLTDDPDTEEALKEFDFLVTAEDGEGAGEARSSGDGTEWAEPITFPSGGGKSFIMGSDDVLLSVLGLGDLADLTVTNDADYSYDLPANKDAFRKTWNPKYTLRSHFDGVRALAFHPVEPVLVTASEDHTLKLWNLQKTVPAKKSASLDVEPIYTFRAHIGPVLSLAISSNGEQCFSGGIDATIQWWNMPSPSVDPYDTYEPNVLAGTLVGHTDAVWGLAYSGIKNQLLSCSADGTVRLWNPQEKLPCICTYNGDKKHGIPTSVDFIGCDPAHMVTSFNTGSAVIYDLETSQSLVILSSQVDSGLQSNNHINRVVSHPTLPVTITAHEDRHIKFFDNKTGKMIHSMVAHLDAVTSLAVDPNGIYLMSGSHDCSIRLWNLDSKTCVQEITAHRKKLDESIYDVAFHSSKAYIASAGADALAKVFV
**Q.** With B1 as the molecule, how does the binding [5] read?
**A.** The binding was “binds”.

B2: YFP-STRN3 (pMet7-YFP-STRN3a) (protein, UniProt Q13033-2 1-713)
chain: MDELAGGGGGGPGMAAPPRQQQGPGGNLGLSPGGNGAAGGGGPPASEGAGPAAGPELSRPQQYTIPGILHYIQHEWARFEMERAHWEVERAELQARIAFLQGERKGQENLKKDLVRRIKMLEYALKQERAKYHKLKYGTELNQGDLKMPTFESEETKDTEAPTAPQNSQLTWKQGRQLLRQYLQEVGYTDTILDVRSQRVRSLLGLSNSEPNGSVETKNLEQILNGGESPKQKGQEIKRSSGDVLETFNFLENADDSDEDEENDMIEGIPEGKDKHRMNKHKIGNEGLAADLTDDPDTEEALKEFDFLVTAEDGEGAGEARSSGDGTEWAEPITFPSGGGKSFIMGSDDVLLSVLGLGDLADLTVTNDADYSYDLPANKDAFRKTWNPKYTLRSHFDGVRALAFHPVEPVLVTASEDHTLKLWNLQKTVPAKKSASLDVEPIYTFRAHIGPVLSLAISSNGEQCFSGGIDATIQWWNMPSPSVDPYDTYEPNVLAGTLVGHTDAVWGLAYSGIKNQLLSCSADGTVRLWNPQEKLPCICTYNGDKKHGIPTSVDFIGCDPAHMVTSFNTGSAVIYDLETSQSLVILSSQVDSGLQSNNHINRVVSHPTLPVTITAHEDRHIKFFDNKTGKMIHSMVAHLDAVTSLAVDPNGIYLMSGSHDCSIRLWNLDSKTCVQEITAHRKKLDESIYDVAFHSSKAYIASAGADALAKVFV
**Q.** For B2, which binding (Flag-GR S211A (human)) is on record?
**A.** The binding was “binds”.

**Q.** And the binding [6]?
**A.** The binding was “no binding”.

**Q.** And the binding [7]?
**A.** Its binding is “binds weakly”.

**Q.** What about the binding [8] of the same molecule?
**A.** The binding was “binds”.

**Q.** And the binding (Flag-GR Del1-416 (human))?
**A.** Its binding is “binds”.

**Q.** And the binding [9]?
**A.** Its binding is “binds”.

**Q.** What about the binding (Flag-GR Del1-401 (human)) of the same molecule?
**A.** The binding was “binds”.
